Data from PMC4336329 (PLoS ONE, 2015).
Hit rate of the full screen: of about 310,000 compounds, about 14,000 (4.5%) showed an effect of 50% or more. Effects have a minus sign here. Some of the results follow.

These compounds were tested against human ether-à-go-go-related gene (hERG) potassium channel (human, UniProt Q12809) (assay: primary screen, population patch clamp on CHO cells stably expressing hERG).
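Note: peak tail current of the secondary pulse compared with the same well before compound.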

human ether-à-go-go-related gene (hERG) potassium channel, sequence (Q12809 whole entry, looked up): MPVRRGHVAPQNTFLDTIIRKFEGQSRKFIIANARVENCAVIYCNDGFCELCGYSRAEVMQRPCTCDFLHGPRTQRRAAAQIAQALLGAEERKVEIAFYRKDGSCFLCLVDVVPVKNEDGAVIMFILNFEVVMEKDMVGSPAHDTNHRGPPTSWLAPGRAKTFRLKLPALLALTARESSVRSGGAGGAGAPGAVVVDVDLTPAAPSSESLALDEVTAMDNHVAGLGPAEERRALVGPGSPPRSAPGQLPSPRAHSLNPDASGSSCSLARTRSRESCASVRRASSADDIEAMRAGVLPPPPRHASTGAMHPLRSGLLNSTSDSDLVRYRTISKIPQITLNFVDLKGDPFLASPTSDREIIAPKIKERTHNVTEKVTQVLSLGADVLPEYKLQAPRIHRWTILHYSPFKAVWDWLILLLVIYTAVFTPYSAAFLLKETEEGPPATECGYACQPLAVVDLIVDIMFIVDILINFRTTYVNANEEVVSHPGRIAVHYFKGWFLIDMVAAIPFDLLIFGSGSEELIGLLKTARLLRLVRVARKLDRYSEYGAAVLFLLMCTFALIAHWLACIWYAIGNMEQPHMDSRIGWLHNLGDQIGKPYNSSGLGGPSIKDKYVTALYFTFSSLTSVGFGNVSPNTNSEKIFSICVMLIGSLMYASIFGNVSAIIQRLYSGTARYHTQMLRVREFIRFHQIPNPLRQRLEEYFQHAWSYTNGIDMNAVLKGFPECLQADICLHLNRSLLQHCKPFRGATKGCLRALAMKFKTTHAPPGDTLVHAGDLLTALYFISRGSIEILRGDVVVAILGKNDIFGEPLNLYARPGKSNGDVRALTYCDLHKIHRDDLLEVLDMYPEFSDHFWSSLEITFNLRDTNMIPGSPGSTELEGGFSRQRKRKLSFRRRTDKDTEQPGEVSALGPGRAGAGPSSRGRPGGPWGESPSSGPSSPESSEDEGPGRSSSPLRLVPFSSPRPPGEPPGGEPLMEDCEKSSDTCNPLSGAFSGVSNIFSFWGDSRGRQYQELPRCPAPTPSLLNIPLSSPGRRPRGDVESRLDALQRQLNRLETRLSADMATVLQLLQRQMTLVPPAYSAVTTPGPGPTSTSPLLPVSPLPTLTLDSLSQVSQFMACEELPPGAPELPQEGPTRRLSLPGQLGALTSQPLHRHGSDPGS

In order of falling “hERG current change (%, negative = inhibition) at 10uM” value:
1. O=C(O)CC(SCC(=O)Nc1ccccc1)C(=O)O (stereo not drawn)  23%
2. COCCn1cnc2c1c(=O)n(CC(=O)O)c(=O)n2Cc1ccccc1  20.4%
3. O=C1C2C3C=CC(C3)C2C(=O)N1c1cccc(-c2nc3ccccc3o2)c1 (stereo not drawn)  18%
4. CC(C)NCC(O)c1ccc(O)c(O)c1.Cl (stereo not drawn)  17%
5. Cc1nccn1CC(=O)O  15.7%
6. Cc1ccc(C(C)C)cc1S(=O)(=O)Nc1cccnc1  15.1%
7. CC1=C(C(=O)Nc2ccccc2)C(c2ccco2)NC(=O)N1 (stereo not drawn)  14.5%
8. COc1ccc2ccccc2c1CNCCN1CCOCC1.Cl  14.4%
9. O=C1c2ccccc2S(=O)(=O)N1CCS(=O)(=O)c1ccc(F)cc1  13.6%
10. Cc1cc(C2C(C#N)=C(N)SC(N)=C2C#N)c(C)s1  13.3%
11. Cc1c(NC(=O)C(C)OC(=O)CNC(=O)c2ccc(C(C)(C)C)cc2)c(=O)n(-c2ccccc2)n1C (stereo not drawn)  13.2%
12. Cl.O=C(CN1CCCCC1)Nc1cccc2c1OCO2  12.9%
13. CNCCOc1ccc(Cl)c(Cl)c1.O=C(O)C(=O)O  12.8%
14. COc1cc(OC)c(OC)cc1/C=N/NC(=O)c1ccc2nc[nH]c2c1  10.2%
15. CCOc1ccccc1-n1c(SCC(=O)N2CCCC2)nnc1-c1ccc(O)cc1  9.76%
16. Cc1ccc(C)n1Cc1ccccc1Cl  8.85%
17. CC1CCC2(CC1)NC(=O)N(CC(=O)Nc1ccc3c(c1)CCC3)C2=O (stereo not drawn)  7.97%
18. CC(C)C(=O)NC(c1ccccc1)c1cc([N+](=O)[O-])c2cccnc2c1O (stereo not drawn)  7.91%
19. CCC(C)N1C(=O)S/C(=C/c2ccc3c(c2)n(C)c(=O)n3C)C1=O (stereo not drawn)  7.82%
20. CC(C)(C)N(Cc1ccccc1)C(=O)CSc1nc2ccccc2c(=O)[nH]1  7.19%
21. CCCCNC(=O)C1C2C=CC(C2)C1C(=O)O (stereo not drawn)  6.98%
22. N#CC(c1ccccc1)N1CCOCC1 (stereo not drawn)  6.63%
23. O=S(=O)(c1ccc2c(c1)CCCC2)N1CCNCC1  6.05%
24. CC1(C)CC(=O)C2=C(C1)Nc1nc(SCCN3CCOCC3)[nH]c(=O)c1C2c1cccs1 (stereo not drawn)  5.91%
25. O=C(NCc1ccc2c(c1)OCO2)c1ccc(CSCc2ccccc2Cl)o1  5.89%
26. Cc1ccccc1C(=O)Nc1nnc(-c2ccncc2)o1  5.13%
27. S=c1nc(-c2ccccc2)oc2c1CCCC2  4.98%
28. COc1ccc([N+](=O)[O-])cc1N=Cc1c(O)n(CCc2ccccc2)c(=O)n(C(C)C)c1=O  4.31%
29. COc1ccc(C(C)=O)c(OC(=O)c2ccc(OC)c(OC)c2)c1  2.92%
30. O=C(Nc1ccccc1Cl)C1CCCN(S(=O)(=O)c2ccc(F)cc2)C1 (stereo not drawn)  1.62%
31. COc1cc(N2CCOCC2)ccc1C=C(C#N)C#N  0.792%
32. COc1cccc(-c2nc(SCC(=O)Nc3nc(-c4ccccc4)c(C)s3)[nH]c(=O)c2C#N)c1  -0.354%
33. O=C(CCSCCC(=O)NCc1ccccc1)NCc1ccccc1  -0.563%
34. Cc1nc2c(c(=O)c3ccccc3n2C)c(=O)n1C1CCCCCC1  -0.582%
35. S=C(c1ccc(-c2ccccc2Cl)o1)N1CCCCC1  -2.18%
36. CCCC1(C(=O)OC)NC(c2ccc(OC)cc2OC)C2C(=O)N(c3cccc(C(C)=O)c3)C(=O)C21 (stereo not drawn)  -3.51%
37. Cc1ccc(S(=O)(=O)N2CCN(C(=O)CCc3c[nH]c4ccccc34)CC2)c(C)c1  -4.36%
38. COc1ccc(OC)c(NC(=O)c2ccccc2N(Cc2ccccc2)S(C)(=O)=O)c1  -5.46%
39. COc1ccc(/C=C2\SC(=O)N(CCC(=O)Nc3ccccc3)C2=O)cc1OC  -5.49%
40. Cc1cc(C)nc(Nc2ccc(C(=O)O)cc2)n1.Cl  -5.88%
41. COc1cccc(S(=O)(=O)N2CCN(c3ccccc3F)CC2)c1  -6.35%
42. CCOc1ccc(S(=O)(=O)N/N=C(\C)Cc2ccc(OC)cc2)cc1  -6.5%
43. CSc1ncnc2c1cnn2-c1ccc(C)cc1C  -7.12%
44. Cc1csc(SCC(=O)Nc2ccc(S(=O)(=O)N3CCCC3)cc2)n1  -7.43%
45. COc1ccc(NS(=O)(=O)Cc2ccccc2)cc1OC  -9.67%
46. COc1ccccc1-c1nnc(SCCN2CCOCC2)n1-c1ccc(C)cc1  -10.6%
47. CCOc1ccccc1OCC(=O)OC(C)C(=O)Nc1ncc(Cl)cc1Cl (stereo not drawn)  -12.2%
48. CCN1C=C(Cc2cccs2)C2=C(C1)C(c1cccs1)C(C#N)=C(N)O2 (stereo not drawn)  -16.8%
49. O=[N+]([O-])c1ccc(CSc2nnc(-c3cnccn3)o2)cc1  -17.9%
50. O=C(CN(Cc1ccco1)C(=O)CNS(=O)(=O)c1ccc(Cl)cc1)NCc1ccc(F)cc1  -30.1%
51. Cc1ccnc(NC(=O)c2cccc(S(=O)(=O)N3CCN(c4ccc(F)cc4)CC3)c2)c1  -31.6%
52. CN(Cc1ccc(OC(F)F)cc1)C(=O)c1ccc2c(=O)n3c(nc2c1)CCC3  -33.3%
53. O=C(Nc1ccc(Cl)cc1)OC1CN2CCC1CC2 (stereo not drawn)  -40.6%
54. CCN(CC)CCN(C(=O)CCS(=O)(=O)c1ccccc1)c1nc2cc(OC)c(OC)cc2s1.Cl  -45%
55. Cc1nn(-c2ccccc2)cc1/C=N/NS(=O)(=O)c1ccccc1  -47.9%
56. O=C(NC(=S)Nc1ccccc1Br)c1ccc2c(c1)OCO2  -56.4%
57. Cc1cc(=O)n2nc(N3CCCC(C(=O)NCc4ccc(Cl)cc4)C3)sc2n1 (stereo not drawn)  -71.7%
